From article PMC4336329 (PLoS ONE, 2015) come the findings set out here.

Screen size: about 310,000 compounds; about 2,200 (0.71%) showed an effect of 50% or more. The effect is printed as a negative number. This is one part of the list.

Sequence of human ether-à-go-go-related gene (hERG) potassium channel (Q12809 whole entry, looked up): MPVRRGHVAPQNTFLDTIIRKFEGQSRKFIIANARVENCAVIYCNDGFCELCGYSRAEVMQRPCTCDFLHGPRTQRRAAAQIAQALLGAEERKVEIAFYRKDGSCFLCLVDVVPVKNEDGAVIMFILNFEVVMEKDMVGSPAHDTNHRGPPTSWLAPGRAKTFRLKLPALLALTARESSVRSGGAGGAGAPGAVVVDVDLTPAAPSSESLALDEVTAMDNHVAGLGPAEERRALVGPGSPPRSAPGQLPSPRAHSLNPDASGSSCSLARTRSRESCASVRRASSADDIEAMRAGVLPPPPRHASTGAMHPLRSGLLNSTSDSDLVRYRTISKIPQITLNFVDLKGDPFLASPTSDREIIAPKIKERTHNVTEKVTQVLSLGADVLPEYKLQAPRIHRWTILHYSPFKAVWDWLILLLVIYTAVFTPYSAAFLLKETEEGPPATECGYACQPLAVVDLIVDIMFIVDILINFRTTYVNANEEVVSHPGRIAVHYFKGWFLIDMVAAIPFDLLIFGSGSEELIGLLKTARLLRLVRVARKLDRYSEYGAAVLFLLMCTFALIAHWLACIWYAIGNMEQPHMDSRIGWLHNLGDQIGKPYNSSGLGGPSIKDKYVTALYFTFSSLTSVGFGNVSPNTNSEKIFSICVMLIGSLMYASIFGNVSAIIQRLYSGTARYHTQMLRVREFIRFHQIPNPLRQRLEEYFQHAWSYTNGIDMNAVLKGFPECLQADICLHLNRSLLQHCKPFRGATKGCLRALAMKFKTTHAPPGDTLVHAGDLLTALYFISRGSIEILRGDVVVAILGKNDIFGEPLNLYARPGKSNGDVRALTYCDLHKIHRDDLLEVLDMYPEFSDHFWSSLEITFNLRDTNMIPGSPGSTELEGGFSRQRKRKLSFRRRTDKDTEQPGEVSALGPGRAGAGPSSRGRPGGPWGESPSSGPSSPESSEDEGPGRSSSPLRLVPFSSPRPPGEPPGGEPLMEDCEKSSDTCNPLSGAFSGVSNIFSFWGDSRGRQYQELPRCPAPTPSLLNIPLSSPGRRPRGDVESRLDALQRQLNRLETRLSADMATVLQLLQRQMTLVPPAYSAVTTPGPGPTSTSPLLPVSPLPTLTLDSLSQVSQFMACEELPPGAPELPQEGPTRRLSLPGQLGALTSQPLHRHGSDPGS

The assay addresses human ether-à-go-go-related gene (hERG) potassium channel (human, UniProt Q12809). Briefly: primary screen, population patch clamp on CHO cells stably expressing hERG.
For the compound `COc1ccc(C2=NN(CC(=O)Nc3cc(C)ccc3C)C(=O)CC2)cc1`, the “hERG current change (%, negative = inhibition) at 1uM” value worked out at 1.16%.
To `Cc1ccc2oc(C(=O)N(Cc3nccn3C)C(C)C)c(C)c2c1` belongs -1.77%; to `Cc1cccc(C)c1NC(=S)N/N=C/c1ccc(OCCC(C)C)cc1`, -5.24%; to `CC1CCCCC12NC(=O)N(CC(=O)NCCc1ccccn1)C2=O` (stereo not drawn), -21.5%.
The result for `CC1(C)Cc2c(C#N)c(SCCC#N)nc(N3CCOCC3)c2CS1` reads 3.42%; that for `COc1cccc(CSc2nnc(C(F)(F)F)n2Cc2ccc(F)cc2)c1`, 3.38%.
Turning to `C=CCn1c(C)cc(C(=O)COC(=O)c2cncc(Br)c2)c1C`, the “hERG current change (%, negative = inhibition) at 1uM” value is -1.38%.
To `CC(C)c1c(C(=O)N/N=C/c2ccc(OCc3ccccc3)cc2)nnn1-c1nonc1N` belongs 13.8%.
The result for `C/C(CC(=O)NCc1ccc(Cl)cc1)=N\NC(=O)COc1ccc(C)cc1Br` reads 7.45%; that for `CCOC(=O)c1c(NC(=O)CC)sc(C(C)=O)c1C`, 10.6%; that for `CCCn1nnnc1NCc1ccc(OC)cc1OC`, 19.3%.
To `O=C(c1ccccc1)N1N=C(c2ccccc2)CC1c1ccccc1O` (stereo not drawn) belongs 3.4%; to `CS(=O)(=O)N(CC(=O)Nc1c(F)cccc1F)c1ccc(C23CC4CC(CC(C4)C2)C3)cc1`, 11.2%; to `COc1ccc([N+](=O)[O-])c(OC)c1C(=O)NC(=O)Nc1c(F)c(F)c(F)c(F)c1F`, 4.71%.
As for `CCN(CC)C(=O)c1[nH]cnc1C(=O)NC1CCN(C(=O)OC(C)(C)C)CC1`, the “hERG current change (%, negative = inhibition) at 1uM” value amounted to 11.5%.
In the case of `Cc1ccc(Nc2nc(N)nc(-c3oc4ccccc4c3C)n2)cc1`, the “hERG current change (%, negative = inhibition) at 1uM” value was determined as 8.82%.
The result for `S=C(NC1CCCC1)NC1CC1` reads 13.5%; that for `CN(C)S(=O)(=O)n1cc(/C=C(\NC(=O)c2ccccc2)C(=O)NCCCn2ccnc2)c2ccccc21`, 18.1%; that for `CC(=O)c1ccc2c(c1)OCCOCCOCCO2`, 12.3%.
The result for `CCC(C)C(=O)Nc1cc(C(=O)OC)cc(C(=O)OC)c1` (stereo not drawn) reads 7.27%; that for `Cc1ccc(NC(=O)c2ccc(OC(=O)C(C)Oc3ccc(Cl)cc3C)cc2)cc1` (stereo not drawn), 11.6%; that for `Cc1cc(=O)n2c(C)n[nH]c2n1`, 9.05%.
To `CCCCC(=O)OCC(=O)c1[nH]c(C)c(C(=O)OCC)c1C` belongs 6.61%; to `CCCCCC1CCC(c2nnc(SCC(C)=O)o2)CC1` (stereo not drawn), 11.5%.
Turning to `Cc1nnc(N/N=C/c2ccc(-c3ccccc3F)o2)n1N.Cl`, the “hERG current change (%, negative = inhibition) at 1uM” value is given as -10.9%.
The result for `CCOC(=O)c1ccc(NC(=O)C(=O)NCC2(c3ccc(OC)cc3)CCOCC2)cc1` reads 5.53%; that for `Cc1ccc(/C=N\NC(=O)C2CN(S(=O)(=O)c3ccccc3)CCN2S(=O)(=O)c2ccccc2)cc1` (stereo not drawn), 10.5%; that for `Cc1cccn2c(=O)nc(SCC(=O)c3ccc(Cl)cc3)nc12`, 1.2%.
The result for `O=C(Cn1cc2c(n1)CCCCC2)NCc1cccs1` reads 5.78%; that for `O=S(=O)(NCCN1CCCC1)c1ccc(C(F)(F)F)cc1`, 12.3%; that for `CN(C(=O)CSc1nc(-c2ccc(F)cc2)cs1)C1CCS(=O)(=O)C1` (stereo not drawn), -15.9%.
The result for `CC(=O)Nc1ccc(-c2csc(NC(=O)c3ccc(C)o3)n2)cc1` reads -4.59%; that for `O=C(CC(NS(=O)(=O)c1ccc(Cl)cc1)c1ccco1)NCc1cccnc1` (stereo not drawn), -0.782%.
Turning to `COc1cc(/C=C(\C#N)C(=O)Nc2cccc(C(=O)O)c2)ccc1OCc1ccc(Cl)cc1`, the “hERG current change (%, negative = inhibition) at 1uM” value amounted to 15.3%.
As for `COc1ccccc1N1CCN(C2CCCN(C(=O)c3cccc(-c4ccco4)c3)C2)CC1` (stereo not drawn), the “hERG current change (%, negative = inhibition) at 1uM” value is given as 5.08%.
Turning to `CC(C)CNC(=O)c1cccc(NC(=O)C(C)C)c1`, the “hERG current change (%, negative = inhibition) at 1uM” value was 11.8%.
Regarding `O=C(NCCc1ccccc1)C(=O)NN=C1CCCC1`, the “hERG current change (%, negative = inhibition) at 1uM” value came out at 4.11%.
Take `COc1ccc(-c2cc(C(=O)Nc3ccccc3O)c3ccccc3n2)cc1`: the “hERG current change (%, negative = inhibition) at 1uM” value is listed as 3.29%.
`CCOc1ccc(/C=N/NC(=O)c2ccccc2O)cc1CN1CC2CC(C1)c1cccc(=O)n1C2` (stereo not drawn): the “hERG current change (%, negative = inhibition) at 1uM” value came to 5.03%.
To `CC(C)C(NC(=O)c1ccccc1NC(=O)c1ccco1)C(=O)NNC(=O)c1ccncc1` (stereo not drawn) belongs 11.6%.
To `COc1ccc(NC(=O)C(C/C=C(/C)Cl)C(C)=O)cc1` (stereo not drawn) belongs 8.19%.
The result for `CCNc1nc(NCC)n2c(SC(C(=O)Nc3cc(C)ccc3C)c3ccccc3)nnc2n1` (stereo not drawn) reads 14.5%; that for `O=C(c1ccc(S(=O)(=O)N2CCOCC2)cc1)N1CCN(S(=O)(=O)c2ccc(Cl)s2)CC1`, 11.2%.
In the case of `CCS(=O)(=O)N1Cc2ccccc2CC1C(=O)NCCc1ccccc1` (stereo not drawn), the “hERG current change (%, negative = inhibition) at 1uM” value is 9.83%.
Consider `C=C(C)c1cccc(C(C)(C)NC(=O)NCc2ccncc2)c1`, for which the “hERG current change (%, negative = inhibition) at 1uM” value is listed as 9.08%.
Take `Cc1cc(C)n(CC(O)Cn2c(C)c(C)c3ccccc32)n1.O=C(O)C(=O)O` (stereo not drawn): the “hERG current change (%, negative = inhibition) at 1uM” value turned out to be 6.75%.
To `Cc1c(S(=O)(=O)Nc2ccc3c(c2)OCCO3)c(=O)n(C)c(=O)n1C` belongs -1.82%; to `Cc1ccc(Cl)c(OCCN2CCc3ccccc3C2)c1.Cl`, 17.1%; to `COc1ccc(C)c2sc(N(CCCN(C)C)C(=O)CS(=O)(=O)c3ccc(F)cc3)nc12.Cl`, 5.75%.
As for `Cc1ccc2cc(C)c(SCC(=O)Nc3ccc(S(=O)(=O)N4CCCC4)cc3)nc2c1`, the “hERG current change (%, negative = inhibition) at 1uM” value is 22.7%.
With `COc1ccc(CCNC(=O)/C=C/c2ccc3ccccc3n2)cc1OC`, the “hERG current change (%, negative = inhibition) at 1uM” value turned out to be 10.9%.
`Cc1ccc(C)c(NC(=O)C2CC=CCC2C(=O)O)c1` (stereo not drawn): the “hERG current change (%, negative = inhibition) at 1uM” value amounted to 16.6%.
In the case of `Cc1ccc(S(=O)(=O)N(CC(=O)N2CCC(C(N)=O)CC2)c2cccc(C(F)(F)F)c2)cc1`, the “hERG current change (%, negative = inhibition) at 1uM” value is 6.97%.
Turning to `CN(C)/C(=N\S(=O)(=O)c1ccccc1)c1ccccc1`, the “hERG current change (%, negative = inhibition) at 1uM” value came to 10.5%.
For `COC(=O)c1ccc(C(=O)Nc2ccc(N)cc2N)cc1`, the “hERG current change (%, negative = inhibition) at 1uM” value came to 11.4%.
As for `CCOC(=O)CN(C(=O)CSc1nnc(CNc2ccc(C)cc2C)n1CC)c1ccccc1`, the “hERG current change (%, negative = inhibition) at 1uM” value is given as -6.78%.
To `CC(C)N1C(=O)CSC1c1ccc(Br)cc1` (stereo not drawn) belongs 15.4%; to `Cc1cccc(C2=NC(C(F)(F)F)(C(F)(F)F)c3c(n(-c4ccc(F)cc4)c(=O)[nH]c3=O)N2)c1`, 15.6%; to `Cc1nc2ccccc2c(=O)n1/N=C/c1cccnc1`, 16%.
To `CC(C)c1ccc(NC(=O)C(=O)C2C(=O)Nc3ccccc32)cc1` (stereo not drawn) belongs -0.533%.
The result for `O=C(O)c1ccc(-n2cncn2)c([N+](=O)[O-])c1` reads 7.34%; that for `CS(=O)(=O)N(CC(=O)NCc1ccco1)c1ccc(Cl)cc1Cl`, 17.5%; that for `COCCCn1c(C2CCCCC2)nc2oc3cc(OC)ccc3c(=O)c2c1=O`, 6.18%.
For `CC(C)(C)SCCNC(=O)Nc1ccccc1`, the “hERG current change (%, negative = inhibition) at 1uM” value was found to be 6.31%.
As for `COc1ccc([C@@H]2[C@@H](C(=O)C(C)(C)C)N3N=Cc4ccccc4[C@@H]3C23C(=O)OC(C)(C)OC3=O)cc1OC`, the “hERG current change (%, negative = inhibition) at 1uM” value is given as -5.04%.
In the case of `Cc1ccc(N(CC(=O)NC(C)(C)C)C(=O)CCC(=O)Nc2nccs2)c(C)c1`, the “hERG current change (%, negative = inhibition) at 1uM” value was 11.4%.
As for `COc1cc(OC)cc(N(C(=O)c2ccco2)C(C(=O)NC2CCCC2)c2ccc(N(C)C)cc2)c1` (stereo not drawn), the “hERG current change (%, negative = inhibition) at 1uM” value is reported as 4.12%.
Turning to `C/C(=N\NC(=O)c1cccc(S(=O)(=O)N2CCOCC2)c1)c1ccc(C)cc1`, the “hERG current change (%, negative = inhibition) at 1uM” value was 7.97%.
For the compound `[N-]=[N+]=N[C@@H](CCN1CC[C@H](O)CCC1=O)c1ccccc1`, the “hERG current change (%, negative = inhibition) at 1uM” value came to 9.49%.
Regarding `Clc1ccc(OCc2nn[nH]n2)cc1`, the “hERG current change (%, negative = inhibition) at 1uM” value stood at 13.7%.
The result for `CCN(CC)C(=O)Cn1cc(C(=O)C(=O)N2CC=C(c3ccccc3)CC2)c2ccccc21` reads 7.11%; that for `Cn1c(SCC(N)=O)nnc1C1CCN(S(=O)(=O)c2ccccc2C(F)(F)F)CC1`, 16.3%.
The result for `CCCOc1ccc(C(=O)CCC(=O)OCC(=O)N2CC(=O)Nc3ccccc32)cc1` reads 16.6%; that for `Cc1ccc(N2CC(C(=O)Nc3cc(C(F)(F)F)ccc3N3CCCC3)CC2=O)cc1` (stereo not drawn), -3.44%; that for `COc1ccc(Cl)cc1S(=O)(=O)N1CCC(C(=O)NCc2ccccn2)CC1`, 1.33%.
Turning to `Cc1ccc(NC(=O)CN(C)C(=O)c2ccc(COc3ccccc3)cc2)cc1`, the “hERG current change (%, negative = inhibition) at 1uM” value is listed as 10.8%.
`COc1ccc2c(c1)[nH]c1c(=O)n(/N=C/C3C(C)C=C(C)CC3C)c(=O)[nH]c12` (stereo not drawn): the “hERG current change (%, negative = inhibition) at 1uM” value came to 17.2%.
The result for `CC1CCCCN1CCCNc1ccc(C(CC(N)=O)NC(=O)Cc2ccc(Cl)cc2)cc1[N+](=O)[O-]` (stereo not drawn) reads -6.77%; that for `O=C(Nc1ccc(NS(=O)(=O)c2ccc([N+](=O)[O-])cc2)cc1)c1ccco1`, 10.6%; that for `O=C(C1CCC1)N1CCc2cc(S(=O)(=O)NCc3cccnc3)ccc21`, 6.41%.
The result for `Cc1ccc(NC(=O)NNC(=O)Cn2nc(-c3ccccc3)c(-c3ccccc3)c(C#N)c2=O)cc1` reads 1.46%; that for `CCOc1ccc(S(=O)(=O)N2CCN(c3ccc(C)cc3C)CC2)cc1`, 2.67%; that for `Cc1nn(CC(=O)NCCc2ccc(Cl)cc2Cl)c(C)c1[N+](=O)[O-]`, 15.1%.
In the case of `CCOc1ccc(/C=C/C(=O)C(C(N)=O)=C2SCCS2)cc1`, the “hERG current change (%, negative = inhibition) at 1uM” value stood at 14.3%.
